# Measurements reported in PubChem BioAssay AID485344 (National Center for Advancing Translational Sciences (NCATS), 2010).
# Out of some 340,000 compounds screened, about 6,900 (2%) were called active. No stated cut-off is given here; in the data, active means inhibition above about 30%; inactive means below that, where a call was filed. This is a selection; strong and weak results do not stand in their true shares. Entries without a call were filed so in the source.
# Target: D(2) dopamine receptor (Homo sapiens) (UniProt P14416)
# UniProt P14416, sequence (P14416 whole entry, looked up): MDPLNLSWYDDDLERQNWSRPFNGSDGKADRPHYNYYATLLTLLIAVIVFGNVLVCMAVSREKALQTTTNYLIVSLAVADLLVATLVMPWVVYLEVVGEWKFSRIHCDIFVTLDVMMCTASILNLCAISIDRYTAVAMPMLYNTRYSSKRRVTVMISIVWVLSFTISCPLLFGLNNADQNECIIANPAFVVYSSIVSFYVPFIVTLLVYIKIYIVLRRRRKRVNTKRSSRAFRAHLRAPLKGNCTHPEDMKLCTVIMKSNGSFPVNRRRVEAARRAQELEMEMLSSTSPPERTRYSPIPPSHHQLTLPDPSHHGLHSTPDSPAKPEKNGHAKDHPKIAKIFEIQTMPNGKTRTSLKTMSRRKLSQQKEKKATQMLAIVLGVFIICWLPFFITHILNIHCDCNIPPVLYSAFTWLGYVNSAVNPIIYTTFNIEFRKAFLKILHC
# Experiment: HTS Assay for Allosteric Antagonists of the Human D2 Dopamine Receptor: Primary Screen for Antagonists; further: 0% is about no effect
# Conditions: HEK293 TREx D2 cells, calcium flux, dopamine EC80; at 10 µM; stronger effect = higher value
# In short: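 Compounds are added to dye-loaded, induced HEK293 T-REx cells coupled to calcium release via D2; after a 3 min kinetic read an EC80 dopamine stimulus is given and fluorescence is recorded for 3 more min.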
row,SMILES,inhibition
1,COc1cccc(CNC(=O)C(=O)NCC(c2cccs2)S(=O)(=O)c2ccccc2)c1 (stereo not given),-23.8%
2,Cc1c(C(=O)OC2CCCCC2)[nH]c2c1C(=O)CC(c1ccc(F)cc1)C2 (stereo not given),-10.6%
3,COc1ccc(-c2[nH]nc3nc(-c4cc(Br)ccc4OC)cc(C(=O)O)c23)cc1,18%
4,O=C(CN1CCCN(Cc2cccc(Cl)c2)S1(=O)=O)Nc1ccc2c(c1)OCCO2,9.26%
5,CC(C)CC(=O)NCC(c1ccc2c(c1)OCO2)N1CCN(c2ccccc2)CC1 (stereo not given),-11.8%
6,Cc1ccc(NC(=O)C2CCN(S(=O)(=O)c3ccc4c(c3)NC(=O)C(C)S4)CC2)cc1C (stereo not given),active: 57.7%
7,COc1ccccc1CN1CCC(CNC(=O)c2cnn(-c3ccccc3Cl)c2C2CCN(C(=O)OC(C)(C)C)CC2)CC1,-8.14%
8,CCC(=O)Nc1ccc(Cl)c(-c2nc3ccccc3[nH]2)c1,14.8%
9,Cc1ccc(-n2ncc3c(N4CCCCCC4)ncnc32)cc1Cl,11.8%
10,Cc1cccc(NC(=O)c2ccc(-n3c(C)nnc3C)cc2)c1,1.92%
11,O=S1(=O)c2ccccc2N(Cc2cccc(F)c2)c2ccccc21,9.9%
12,COc1ccc(NC(=O)c2ccco2)cc1NC(=O)c1cc(Cl)ccc1OC,19%
13,CCCN(CCC)C(=O)Cn1c(=O)n(-c2cccc(C)c2)c(=O)c2c1c1cc(OC)ccc1n2C,-5.47%
14,CSc1ccc(-c2nnn(CC(=O)Nc3sc4c(c3C#N)CCC(C(C)(C)C)C4)n2)cc1 (stereo not given),-9.16%
15,COc1cccc(-c2cc(C(F)(F)F)nc(NCCc3ccc(OC)c(OC)c3)n2)c1,-13.4%
16,Cc1cccc(CN2CCC(CNC(=O)Cn3ncc4c([nH]c5ccc(C)cc54)c3=O)CC2)c1,-5.77%
17,CCOC(=O)c1cc(S(=O)(=O)NCc2ccc(Cl)cc2)[nH]n1,-3.43%
18,O=C(CCN1CCN(c2ccccc2)CC1)NNC(=O)Cc1c(F)cccc1Cl,active: 60.2%
19,COc1ccccc1C(=O)Nc1nc2n(n1)C(c1ccc(F)cc1)C=C(c1ccc(Cl)cc1)N2 (stereo not given),-5.82%
20,Cc1ccccc1CSc1ncc(Cl)c(C(=O)Nc2nc3ccc(F)cc3s2)n1,10%
21,COc1ccccc1C(=O)N/C(=C\c1cn(S(=O)(=O)N(C)C)c2ccccc12)C(=O)NCCCn1ccnc1,4.97%
22,CCc1ccc(CNC(=O)C2CCCN(c3nnc(C)c4c(C)n(-c5ccccc5)nc34)C2)cc1 (stereo not given),-9.02%
23,Cc1cc2n(n1)CCC(=O)N2Cc1ccc(C(=O)Nc2cc(Cl)ccc2C)cc1,-11.5%
24,COc1ccc(OC)c(NC(=O)C2CCCN(S(=O)(=O)c3ccc4c(c3)CCCC(=O)N4)C2)c1 (stereo not given),5.99%
25,COc1ccccc1NC(=O)C1=C(C)Nc2nc(SC)nn2C1c1ccccc1Cl (stereo not given),-17.7%
